The list shows a part of the results.

The record followed here is the supplement of paper PMC11417369.

For this experiment, the system named is PfHDP1 homeodomain (GST-tagged). As to the kind of experiment: gcPBM binding intensity (ln(normalized median fluorescence intensity)); higher = stronger DNA binding. A digest of the protocol:
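Plasmodium falciparum DNA-binding domains carrying a GST tag were expressed in E. coli and applied for 1 h, at about 25 μg on average, to an Agilent 4 × 180k array. The array held primer-extended double-stranded 36-bp intergenic genomic probes together with negative controls, and binding took place in 1× PBS with 1% milk, 0.2 mg/ml BSA, 0.5% salmon testes DNA and 0.03% Triton X-100. An Alexa488 anti-GST antibody detected bound protein, and the array was scanned at 488 nm. Binding intensity is taken as the highest Masliner-normalised natural-log median intensity across replicate spots of either probe orientation.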
“GGTATAATAATATATAGTACACACAAAAATGGAAGT [XGTACX_site7058]”: the “gcPBM binding intensity (ln)” value amounted to 7.5. In the case of “TAAAGAAAAAGAGAATGTACATGAGAAAAGTATACT [XGTACX_site7472]” it was 7.22; in that of “AAAAAAGATAATTATGCACACACACCCACCCACCCA [CACACA_site8825]”, 9.38. To “AGAAAAAAAAAAAAATGTACAGACTTTTTCTTATAA [XGTACX_site6481]” belongs 6.2; to “ACACAAAAAAATATATATATATATATATATATGTTA [CACACA_negctrl_site55]”, 7.18. “TTTTTATAAATACACATAAATATATATATATATATA [TGCATGCA_negctrl_site393]”: the “gcPBM binding intensity (ln)” value worked out at 9.19. In the case of “ATGCATTATTAGAATACACACCATACGCATATTTAT [CACACA_site4319]”, the “gcPBM binding intensity (ln)” value worked out at 7.09.

As to “AAAAAAAAAAAAAAATGTACATTTTGAAAGGATATA [XGTACX_site8217]”, the “gcPBM binding intensity (ln)” value was determined as 6.58. To “TAATAATAAAAATAAACACACATATATCTGTATTTA [CACACA_site5572]” belongs 6.12; to “TATTTATAAACATACGCACACATTAAAATATATATA [CACACA_site6051]”, 7.47. In the case of ATATATATATATATAGTGCATAAAATAAGTTTCTAA it was 9.54; in that of “GGTGGAAACAATTACACACACACAAAAAAAAAAAAA [CACACA_site3208]”, 6.4; in that of “AATCACAACAGACACACACACAAAAAAAAAAAAAAA [CACACA_site1442]”, 6.45. To “TTAATATAATAGAAGTGTACACACATATTTATGTGT [XGTACX_site6672]” belongs 6.38. As to “ATATGTTATATAAATATATATATATATATATATATA [TGCATGCA_negctrl_site594]”, the “gcPBM binding intensity (ln)” value was determined as 9.41. Turning to “TCAAAATTGCTTTGTTGTACTAATAAAATTTATTAC [XGTACX_site1121]”, the “gcPBM binding intensity (ln)” value worked out at 6.26.

In the case of “TATATATACATACGTACACACAAATATTAAAATATA [CACACA_site1951]”, the “gcPBM binding intensity (ln)” value came to 6.81. Consider “TATCTGTAAACATATTCACACACATAAATTCGCATA [CACACA_site8557]”, for which the “gcPBM binding intensity (ln)” value is 6.6. In the case of “TACACTAATGACAGTTGTACTTTTATTCGATAGAAT [XGTACX_site738]”, the “gcPBM binding intensity (ln)” value was 6.19. Regarding “TATATATATATAATATGTACATATATACATGCCTTG [XGTACX_site2791]”, the “gcPBM binding intensity (ln)” value was 8.74. To “TCGAAAATGACGAATGGTACAGTATGTATAAAAATA [XGTACX_site1258]” belongs 6.5; to “ACTTTTTTTTTGTGTGTGCACTCGATTATATACATA [GTGCAC_site9846]”, 10.2; to “ATATATTATATATGCGCACACACGAATTTTTTTTTT [CACACA_site2393]”, 7.8. Consider “ATTAAAGTTATAAATTCACACATGTAAATGTATTTA [CACACA_site5279]”, for which the “gcPBM binding intensity (ln)” value turned out to be 6.3. Consider “GTTATATATGATGGAAGCACTTGGAAGAGGGAAATA [CACACA_negctrl_site1831]”, for which the “gcPBM binding intensity (ln)” value worked out at 6.84. In the case of “GATAAATATTTAATATGTACATATATTATATATATA [XGTACX_site117]” it was 7.28; in that of “TATATACACACCGTGTGTACATATACATTAACTGAA [XGTACX_site7120]”, 6.96; in that of “AAAAATAAAAAAATAAAAAATAAAAAAATAAAAAAT [CACACA_negctrl_site1425]”, 6.64.

With “AAAAAGAAAAAGAGCACACAAAAATATTTAACCTTT [CACACA_site2747]”, the “gcPBM binding intensity (ln)” value amounted to 6.54.

With “ATATATATATGTATGTATATATATATATATATGTTT [CACACA_negctrl_site248]”, the “gcPBM binding intensity (ln)” value was 8.61.

Turning to “TTTCTTTTTTTTTGAAGTACATAAAAATATAAAAAA [XGTACX_site311]”, the “gcPBM binding intensity (ln)” value stood at 6.32. In the case of “TAAATTTTTTCTTTTTGTACATATTTTAAAAATGTT [XGTACX_site7526]”, the “gcPBM binding intensity (ln)” value is 6.36. To “AATATTATAAAATATTGTACTTAAAAAATTATTAAA [XGTACX_site2469]” belongs 6.13; to “ATGGCATAAATATATGCACACACAAAAAAAAAAAAA [CACACA_site7902]”, 9. To “AAGGATAATAGGTACACATGCAATATTCATATATAC [TGCATGCA_site523]” belongs 6.51; to “AAAAATATAAATGACACACACTTAAAAACAAAGAAA [CACACA_site4540]”, 6.73; to “CTTATATATACGTGCACACATATATATAAGATATAT [CACACA_site1752]”, 10.2.

For the sequence “TTTTATTCCGTTTCAAAATAAGAAAAAAAAAAAAAT [CACACA_negctrl_site1199]”, the “gcPBM binding intensity (ln)” value stood at 6.25. To “TACTTCTCATTTGTTGTTGTATTTTAGGCATACCCT [XGTACX_negctrl_site385]” belongs 6.88; to “TTTCACACTATTTCATGTACACATAAAATTATATAT [XGTACX_site8692]”, 6.89; to “TAAATATAATAAAAGTGTACTTACACTTACATATAA [XGTACX_site1206]”, 6.23.

For the sequence “ATATAATAAGGTTAAGCACACATATTACATATATAA [CACACA_site9110]”, the “gcPBM binding intensity (ln)” value was 6.45. To “TTGTATATATTTCCTTGTACGTAATAATTCTTATTG [XGTACX_site3938]” belongs 6.75; to “AACAGATAAAAGGGTACACACATATATACATGTACA [CACACA_site225]”, 6.39.
